No constants are given. Whether binding was seen depends on the method and setting. Some entries that bind do so weakly or less than the wild type. Where a sequence is shown, tags or fusion partners need not be part of it.
How the values were obtained:
Experiment in all cases: two-hybrid; KAR4-GBD alleles with IME4-GAD in PJ69-4 diploids; 24 hours in meiosis-inducing conditions, then 10-fold serial dilutions on SC-HIS and SC-ADE (HIS3 and ADE2 reporters); graded ++++ to -
[1] = target: T1, Kar4p W212R fused to the Gal4p DNA-binding domain (S. cerevisiae) (UniProt P25583)
T1 sequence: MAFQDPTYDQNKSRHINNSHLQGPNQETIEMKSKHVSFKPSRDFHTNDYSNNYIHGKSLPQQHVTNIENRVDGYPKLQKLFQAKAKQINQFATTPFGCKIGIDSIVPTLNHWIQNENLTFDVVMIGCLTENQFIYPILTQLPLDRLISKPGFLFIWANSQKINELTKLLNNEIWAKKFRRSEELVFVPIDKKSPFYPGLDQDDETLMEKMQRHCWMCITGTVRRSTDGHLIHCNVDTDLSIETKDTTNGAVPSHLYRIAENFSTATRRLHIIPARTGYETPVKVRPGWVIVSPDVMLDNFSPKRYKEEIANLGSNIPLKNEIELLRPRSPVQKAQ

[2] = target: T2, Kar4p E183K fused to the Gal4p DNA-binding domain (S. cerevisiae) (UniProt P25583)
T2 sequence: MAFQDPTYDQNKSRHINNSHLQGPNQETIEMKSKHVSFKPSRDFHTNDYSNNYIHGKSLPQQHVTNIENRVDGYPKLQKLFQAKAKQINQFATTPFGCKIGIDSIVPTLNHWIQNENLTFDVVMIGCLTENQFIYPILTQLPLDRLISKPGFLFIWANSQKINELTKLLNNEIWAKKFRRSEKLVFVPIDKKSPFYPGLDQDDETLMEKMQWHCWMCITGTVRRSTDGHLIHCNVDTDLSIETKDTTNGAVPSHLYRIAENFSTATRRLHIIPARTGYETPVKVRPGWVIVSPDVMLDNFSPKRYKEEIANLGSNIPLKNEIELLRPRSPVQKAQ

[3] = target: T3, Kar4p W156G fused to the Gal4p DNA-binding domain (S. cerevisiae) (UniProt P25583)
T3 sequence: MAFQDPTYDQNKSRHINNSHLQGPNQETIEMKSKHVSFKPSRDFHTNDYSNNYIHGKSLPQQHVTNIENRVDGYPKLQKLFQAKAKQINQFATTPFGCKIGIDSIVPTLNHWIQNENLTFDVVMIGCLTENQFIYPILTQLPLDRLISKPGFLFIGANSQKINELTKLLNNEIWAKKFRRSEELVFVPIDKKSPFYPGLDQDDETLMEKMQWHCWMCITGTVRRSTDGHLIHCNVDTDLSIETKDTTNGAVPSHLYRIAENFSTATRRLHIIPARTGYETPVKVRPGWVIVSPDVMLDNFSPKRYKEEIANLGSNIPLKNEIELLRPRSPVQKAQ

[4] = target: T4, Kar4p E260G fused to the Gal4p DNA-binding domain (S. cerevisiae) (UniProt P25583)
T4 sequence: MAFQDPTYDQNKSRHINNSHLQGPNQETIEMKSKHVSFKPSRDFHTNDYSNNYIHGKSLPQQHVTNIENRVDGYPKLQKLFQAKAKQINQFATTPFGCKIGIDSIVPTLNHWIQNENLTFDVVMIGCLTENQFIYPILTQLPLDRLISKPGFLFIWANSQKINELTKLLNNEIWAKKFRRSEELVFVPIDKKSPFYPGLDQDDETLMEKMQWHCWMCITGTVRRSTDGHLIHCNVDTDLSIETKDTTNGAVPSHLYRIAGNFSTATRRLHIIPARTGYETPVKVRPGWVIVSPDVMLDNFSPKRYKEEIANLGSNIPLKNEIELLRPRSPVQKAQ

[5] = target: T5, Kar4p C127Y fused to the Gal4p DNA-binding domain (S. cerevisiae) (UniProt P25583)
T5 sequence: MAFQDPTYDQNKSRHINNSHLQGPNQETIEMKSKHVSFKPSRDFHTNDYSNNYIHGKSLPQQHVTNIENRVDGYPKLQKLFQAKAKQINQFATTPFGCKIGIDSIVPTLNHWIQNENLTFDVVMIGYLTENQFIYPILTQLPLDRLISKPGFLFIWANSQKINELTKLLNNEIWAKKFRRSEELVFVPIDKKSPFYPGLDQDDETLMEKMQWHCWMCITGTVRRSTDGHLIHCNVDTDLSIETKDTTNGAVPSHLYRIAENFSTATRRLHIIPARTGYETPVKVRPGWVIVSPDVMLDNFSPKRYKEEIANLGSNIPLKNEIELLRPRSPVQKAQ

[6] = target: T6, Kar4p A157P fused to the Gal4p DNA-binding domain (S. cerevisiae) (UniProt P25583)
T6 sequence: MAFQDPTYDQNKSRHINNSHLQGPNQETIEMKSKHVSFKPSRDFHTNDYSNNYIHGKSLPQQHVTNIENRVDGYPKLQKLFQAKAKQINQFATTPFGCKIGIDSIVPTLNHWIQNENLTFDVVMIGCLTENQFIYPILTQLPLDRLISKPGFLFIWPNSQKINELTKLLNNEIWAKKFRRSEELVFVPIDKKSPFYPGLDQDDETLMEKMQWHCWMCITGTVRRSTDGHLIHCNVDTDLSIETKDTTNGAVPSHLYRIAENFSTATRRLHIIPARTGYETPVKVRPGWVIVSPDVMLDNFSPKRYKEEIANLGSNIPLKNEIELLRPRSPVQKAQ

- binding [1]: binds
- binding [2]: binds
- binding [3]: no binding
- binding [4]: binds
- binding [5]: binds
- binding [6]: binds
B1: Ime4p fused to the Gal4p activating domain (protein, UniProt P41833 1-600)
chain: MINDKLVHFLIQNYDDILRAPLSGQLKDVYSLYISGGYDDEMQKLRNDKDEVLQFEQFWNDLQDIIFATPQSIQFDQNLLVADRPEKIVYLDVFSLKILYNKFHAFYYTLKSSSSSCEEKVSSLTTKPEADSEKDQLLGRLLGVLNWDVNVSNQGLPREQLSNRLQNLLREKPSSFQLAKERAKYTTEVIEYIPICSDYSHASLLSTSVYIVNNKIVSLQWSKISACQENHPGLIECIQSKIHFIPNIKPQTDISLGDCSYLDTCHKLNTCRYIHYLQYIPSCLQERADRETASENKRIRSNVSIPFYTLGNCSAHCIKKALPAQWIRCDVRKFDFRVLGKFSVVIADPAWNIHMNLPYGTCNDIELLGLPLHELQDEGIIFLWVTGRAIELGKESLNNWGYNVINEVSWIKTNQLGRTIVTGRTGHWLNHSKEHLLVGLKGNPKWINKHIDVDLIVSMTRETSRKPDELYGIAERLAGTHARKLEIFGRDHNTRPGWFTIGNQLTGNCIYEMDVERKYQEFMKSKTGTSHTGTKKIDKKQPSKLQQQHQQQYWNNMDMGSGKYYAEAKQNPMNQKHTPFESKQQQKQQFQTLNNLYFAQ
